Measurements taken from PubChem BioAssay AID248 (DTP/NCI, 2004).
Toxic doses and inconclusive results are not listed. Not every entry of the source has a single result; some have several. The list is limited to them. There may be further records. The values listed for one entry are repeats in other runs, samples, wells, individuals or studies. A tag in brackets gives the origin of a value. The letters are not those of the source and start again with each entry.

Test system: L1210 leukemia ip in BDF1 mice, survival T/C
Test: NCI In Vivo Anticancer Drug Screen. Data for tumor model L1210 Leukemia (intraperitoneal) in B6D2F1 (BDF1) mice
Details: endpoint: mean survival time, higher = longer survival
[1] = dose: 200.0 mg/kg/injection, schedule: Q01DX001 (ip), vehicle: carboxymethylcellulose (CMC)

Cc1ccc(O)c(C)n1
T/C (dose: 100.0 mg/kg/injection, schedule: Q01DX009 (ip), vehicle: saline): 106 % of control and 154 % of control

COC1OC(CO)C(O)C(NC(=O)N(C)N=O)C1O (configuration not stated)
T/C (dose: 200.0 mg/kg/injection, schedule: Q01DX009 (ip), vehicle: saline): 100 % of control [sample A] and 177 % of control, 193 % of control [sample B]

CN(C)CCOC(=O)N1c2ccccc2C(C)(C)c2ccccc21
T/C (dose: 100.0 mg/kg/injection, schedule: Q01DX001 (ip), vehicle: water): 91 % of control and 183 % of control

CCN(CC)CC(C)Nc1ccc([N+](=O)[O-])c2sc3ccccc3c(=O)c12 (configuration not stated)
T/C (dose: 41.0 mg/kg/injection, schedule: Q01DX Z (ip), vehicle: methylcellulose (MC)): 116 % of control and 150 % of control | T/C (dose: 60.0 mg/kg/injection, schedule: Q01DX Z (ip), vehicle: carboxymethylcellulose (CMC)): 122 % of control, 185 % of control, 195 % of control | T/C (dose: 90.0 mg/kg/injection, schedule: Q01DX Z (ip), vehicle: carboxymethylcellulose (CMC)): 92 % of control and 171 % of control

CC(=O)Nc1ccn(C2OC(COC(C)=O)C(OC(C)=O)C2OC(C)=O)c(=O)n1 (configuration not stated)
T/C (dose: 400.0 mg/kg/injection, schedule: Q01DX Z (ip), vehicle: carboxymethylcellulose (CMC)): 119 % of control and 190 % of control

CCCCCCOB(OCCCCCC)OCCCCCC
T/C [1]: 95 % of control, 100 % of control, 156 % of control

CCCCC(CCCC)(S(=O)(=O)CC)S(=O)(=O)CC
T/C (dose: 400.0 mg/kg/injection, schedule: Q01DX001 (ip), vehicle: carboxymethylcellulose (CMC)): 94 % of control, 95 % of control, 166 % of control

O=c1cnn(C2OC(CO)C(O)C2O)c(=O)[nH]1 (configuration not stated)
T/C (dose: 400.0 mg/kg/injection, schedule: Q01DX Z (oral), vehicle: saline): 93 % of control and 166 % of control

NC(=O)SCC(=O)Nc1ccc2ncccc2c1
T/C [1]: 89 % of control, 109 % of control, 166 % of control

O=C(C(=O)N1CC2OC2C1)N1CC2OC2C1 (configuration not stated)
T/C (dose: 100.0 mg/kg/injection, schedule: Q04DX002 (ip), vehicle: saline with Tween-80): 105 % of control and 333 % of control
